According to paper PMC7819943, “Rice protein-binding microarrays: a tool to detect cis-acting elements near promoter regions in rice”:
The list shows a part of the results.

Each sequence was assayed against T1, OsWOX13 (Oryza sativa, UniProt Q5QMM3 1-267) (assay: protein-binding microarray (RPBM); PBS, 2% BSA, 51.3 ng/ul salmon testes DNA, 50 uM zinc acetate, 200 nM TF, 25 C, 1 h; high values mean tight binding). Conditions: protein: recombinant; tags: N-terminal polyhistidine and DsRed monomer fusion (pET32a); label: CyDye5-dUTP incorporated in the synthesized complementary strand; 3' TTTTT single-stranded linker to array surface; dsDNA, one strand shown.
T1 sequence: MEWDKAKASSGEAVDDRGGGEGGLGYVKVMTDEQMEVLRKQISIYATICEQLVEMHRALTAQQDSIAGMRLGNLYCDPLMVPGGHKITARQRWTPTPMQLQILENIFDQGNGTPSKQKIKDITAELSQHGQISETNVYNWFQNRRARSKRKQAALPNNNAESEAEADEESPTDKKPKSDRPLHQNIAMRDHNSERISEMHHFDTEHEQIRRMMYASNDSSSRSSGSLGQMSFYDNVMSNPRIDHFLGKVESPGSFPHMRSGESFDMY
Procedure, shortened: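 For the binding signal, per-feature fluorescence intensity was read in arbitrary units on an Axon 4000B scanner. Before scanning, a 2% BSA-blocked custom Agilent array made double-stranded with Cy5-dUTP was washed after 1 h at 25 °C with 200 nM protein and 50 µM zinc acetate. The proteins were Ni–NTA-purified transcription factors with N-terminal polyhistidine and DsRed fusions, expressed in E. coli BL21-CodonPlus.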
For “TTATGATATATTGATCGTAGGATTGGGATTGGGATCCTATCGGAGTCACCTAGTGCAG”, the binding signal was 15800 fluorescence intensity (a.u.). “TCGCATCGTTCCAATTTCAATCAAACTTTCAATTTTGGCGCGGAGTCACCTAGTGCAG” was tested, and the binding signal was 10600 fluorescence intensity (a.u.). With “CTAGATAGATATATATGTTTAGATTCATTAACATCGATATCGGAGTCACCTAGTGCAG” the binding signal was 6440 fluorescence intensity (a.u.). For “CCACTAATTAGAGTGGCAGCAACAAATAACATTTCTCCTGCGGAGTCACCTAGTGCAG”, the binding signal was 39300 fluorescence intensity (a.u.). “AGCTCCAATTTAATTTCAAAATGAATTTATATATTCATTGCGGAGTCACCTAGTGCAG” was tested, and the binding signal was 18500 fluorescence intensity (a.u.). In the case of “ATTTAATTACAATGAATTCATTAGTGAAATTGGATCATGGCGGAGTCACCTAGTGCAG”, the binding signal is reported as 30700 fluorescence intensity (a.u.). “CTCAATTTCCACACCTGTCAATTTCCTCCGTGTAATACACCGGAGTCACCTAGTGCAG” was tested, and the binding signal was 7270 fluorescence intensity (a.u.). In the case of “ATTAAGTATGTGATTAGTGGCAACAGCCCGCCCATTATGACGGAGTCACCTAGTGCAG”, the binding signal is reported as 9690 fluorescence intensity (a.u.). For “ATGAAACACGCTATTAAATAATTAGACTGTATACATCCTTCGGAGTCACCTAGTGCAG”, the binding signal was 3470 fluorescence intensity (a.u.). “TGCTAATTATTGGCATCTCTTGTTTCTTCTCCTCCTACTACGGAGTCACCTAGTGCAG” was tested, and the binding signal was 43300 fluorescence intensity (a.u.). With “TTCTTGAAGAGCAATTTCCATGATTGGAAGGTAGGTTGTACGGAGTCACCTAGTGCAG” the binding signal was 6100 fluorescence intensity (a.u.). In the case of “TGTTTCATTGAAATAATTGCCCTTAATAGTTCCTTCTGGTCGGAGTCACCTAGTGCAG”, the binding signal is reported as 5310 fluorescence intensity (a.u.). With “AGTAATAATTACTGTTCATTAGTTATGACTCTCTCACGGGCGGAGTCACCTAGTGCAG” the binding signal was 26400 fluorescence intensity (a.u.). With “AATCTTGATAGATGGTAGTATCATTTGACTGAAGTACCTCCGGAGTCACCTAGTGCAG” the binding signal was 13400 fluorescence intensity (a.u.). In the case of “GTGGCCTGATTACACGATTTGCAAGTTAATGGACCTGGATCGGAGTCACCTAGTGCAG”, the binding signal is reported as 11500 fluorescence intensity (a.u.). With “GCCACTGAATGTTCAGAGATGATTTGCAAATTGCAACCGCCGGAGTCACCTAGTGCAG” the binding signal was 10900 fluorescence intensity (a.u.). “TTGATTACTGAAAATGGATAGATGTAGGAGGAGAAAAGCACGGAGTCACCTAGTGCAG” was tested, and the binding signal was 11500 fluorescence intensity (a.u.). “AATAATCACAAATCTAGCCACGACAGTGACTTTGCACTTCCGGAGTCACCTAGTGCAG” was tested, and the binding signal was 5160 fluorescence intensity (a.u.). With “GGTGACTGACACGTTGGGTCGCTTCATTCCATAGTTAGGCCGGAGTCACCTAGTGCAG” the binding signal was 14800 fluorescence intensity (a.u.). “AATAACATCATGAGTTGATTGAATCTCCTGAAAATAAAGACGGAGTCACCTAGTGCAG” was tested, and the binding signal was 41300 fluorescence intensity (a.u.). “ATAAATAATTGTAGTATTAGCAAGTTGTAGTAGACGCAGACGGAGTCACCTAGTGCAG” was tested, and the binding signal was 8520 fluorescence intensity (a.u.). “TTTACACACACATTAATTTACCGCTGTACTATACAAAGGACGGAGTCACCTAGTGCAG” was tested, and the binding signal was 3510 fluorescence intensity (a.u.). With “GTCCACCCGTTTATTGCATGTCAATTAGATGATTACGAAACGGAGTCACCTAGTGCAG” the binding signal was 15100 fluorescence intensity (a.u.).
